Test results published in patent EP0745599A2, “1-(3-Heterocyclylphenyl)-s-triazine-2,4,6-oxo or thiotrione herbicidal agents” (American Cyanamid Company, priority 1995, dated 1996).
At least one read-out could not be matched to a standard name with certainty.

Columns and labels:
Format in all cases: in vivo
Details in all cases: rated four to five weeks after treatment
[1] = test system: CASSIA OBTUSIFOLIA, L.; experiment: Postemergence herbicidal evaluation, CASOB (Sicklepod)
Procedure: (§1) In the tests, seedling plants are grown in jiffy flats for about two weeks. The test compounds are dispersed in 50/50 acetone/water mixtures containing 0.5% TWEEN®20, a polyoxyethylene sorbitan monolaurate surfactant of Atlas Chemical Industries, in sufficient quantities to provide the equivalent of about 0.125 kg to 0.500 kg per hectare of active compound when applied to the plants through a spray nozzle operating at 40 psi for a predetermined time. After spraying, the plants are placed on greenhouse benches and are cared for in the usual manner, commensurate with conventional greenhouse practices. From four to five weeks after treatment, the seedling plants are examined and rated according to the rating system set forth below. Where more than one test is involved for a given compound, the data are averaged.
(§2) Results of herbicide evaluation are expressed on a rating scale (0-9). The scale is based upon a visual observation of plant stand, vigor, malformation, size, chlorosis and overall plant appearance as compared with a control.

[2] = test system: ORYZA SATIVA, L. TEBONNET; experiment: Postemergence herbicidal evaluation, ORYSAT (Rice, Tebonnet)
How it was run: (§3)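 Compound is dispersed in 50/50 acetone/water containing 0.5% TWEEN®20 and sprayed at 40 psi onto seedlings about two weeks old, delivering about 0.125–0.500 kg/ha. Injury is scored 0–9 four to five weeks later.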

[3] = test system: ZEA MAYS L.; experiment: Preemergence herbicidal evaluation, ZEAMX (Corn, Field)
Description: as §2
(§4) The preemergence herbicidal activity of the test compounds of the present invention is exemplified by the following tests in which the seeds of a variety of monocotyledonous and dicotyledonous plants are separately mixed with potting soil and planted on top of approximately one inch of soil in separate pint cups. After planting, the cups are sprayed with the selected aqueous acetone solution containing test compound in sufficient quantity to provide the equivalent of about 0.125 to 0.50 kg per hectare of test compound per cup. The treated cups are then placed on greenhouse benches, watered and cared for in accordance with conventional greenhouse procedures. From four to five weeks after treatment, the tests are terminated and each cup is examined and rated according to the rating system provided in Example 42.

[4] = test system: CHENOPODIUM ALBUM, L.; experiment: Postemergence herbicidal evaluation, CHEAL (Lambsquarters, Common)
How it was run: as §3

[5] = test system: ORYZA SATIVA, L. TEBONNET; experiment: Preemergence herbicidal evaluation, ORYSAT (Rice, Tebonnet)
Description: as §2, §4

[6] = test system: ABUTILON THEOPHRASTI, MEDIC.; experiment: Preemergence herbicidal evaluation, ABUTH (Velvetleaf)
Description: as §2, §4

[7] = test system: TRITICUM AESTIVUM, CV. APOLLO; experiment: Postemergence herbicidal evaluation, TRZAWO (Wheat, Winter, CV. APOLLO)
How it was run: as §3

[8] = test system: CASSIA OBTUSIFOLIA, L.; experiment: Preemergence herbicidal evaluation, CASOB (Sicklepod)
Description: as §2, §4

[9] = test system: GLYCINE MAX(L)MERR. CV. WILLIAMS; experiment: Postemergence herbicidal evaluation, GLXMAW (Soybean, Williams)
How it was run: as §3

[10] = test system: GALIUM APARINE; experiment: Preemergence herbicidal evaluation, GALAP (Galium)
Description: as §2, §4

[11] = test system: SETARIA VIRIDIS, (L) BEAU; experiment: Postemergence herbicidal evaluation, SETVI (Foxtail, Green)
Procedure: as §1, §2

[12] = test system: ECHINOCHLOA CRUS-GALLI, (L) BEAU; experiment: Postemergence herbicidal evaluation, ECHCG (Barnyardgrass)
Procedure: as §1, §2

[13] = test system: AMBROSIA ARTEMISIIFOLIA, L.; experiment: Preemergence herbicidal evaluation, AMBEL (Ragweed, Common)
Description: as §2, §4

[14] = test system: GALIUM APARINE; experiment: Postemergence herbicidal evaluation, GALAP (Galium)
[15] = test system: ZEA MAYS L.; experiment: Postemergence herbicidal evaluation, ZEAMX (Corn, Field)
How it was run: as §3

[16] = test system: IPOMOEA SPP.; experiment: Postemergence herbicidal evaluation, IPOSS (Morningglory Spp.)
[17] = test system: AMBROSIA ARTEMISIIFOLIA, L.; experiment: Postemergence herbicidal evaluation, AMBEL (Ragweed, Common)
How it was run: as §3

## Cn1c(=O)n(CC(=O)OC(C)(C)C)c(=O)n(-c2cc(N3C(=O)C4=C(CCCC4)C3=O)c(F)cc2Cl)c1=O [Compound 2, Tert-butyl 3-[2-chloro-5-(1-cyclohexene-1,2-dicarboximido)-4-fluorophenyl]tetrahydro-5-methyl-2,4,6-trioxo-s-triazine-1(2H)-acetate]
[1]; 0.125 kg/ha
  Herbicide rating (0-9) CASOB: 5.0
[1]; 0.250 kg/ha
  Herbicide rating (0-9) CASOB: 5.5
[1]; 0.500 kg/ha
  Herbicide rating (0-9) CASOB: 7.0
[2]; 0.125 kg/ha
  Herbicide rating (0-9) ORYSAT: 3.0
[2]; 0.250 kg/ha
  Herbicide rating (0-9) ORYSAT: 3.8
[2]; 0.500 kg/ha
  Herbicide rating (0-9) ORYSAT: 4.5
[3]; 0.125 kg/ha
  Herbicide rating (0-9) ZEAMX: 0.0
[3]; 0.250 kg/ha
  Herbicide rating (0-9) ZEAMX: 0.0
[3]; 0.500 kg/ha
  Herbicide rating (0-9) ZEAMX: 2.0
[4]; 0.125 kg/ha
  Herbicide rating (0-9) CHEAL: 5.5
[4]; 0.250 kg/ha
  Herbicide rating (0-9) CHEAL: 7.5
[4]; 0.500 kg/ha
  Herbicide rating (0-9) CHEAL: 8.0
[5]; 0.125 kg/ha
  Herbicide rating (0-9) ORYSAT: 0.0
[5]; 0.250 kg/ha
  Herbicide rating (0-9) ORYSAT: 1.0
[5]; 0.500 kg/ha
  Herbicide rating (0-9) ORYSAT: 1.0
[6]; 0.125 kg/ha
  Herbicide rating (0-9) ABUTH: 7.0
[6]; 0.250 kg/ha
  Herbicide rating (0-9) ABUTH: 9.0
[6]; 0.500 kg/ha
  Herbicide rating (0-9) ABUTH: 9.0
[7]; 0.125 kg/ha
  Herbicide rating (0-9) TRZAWO: 3.5
[7]; 0.250 kg/ha
  Herbicide rating (0-9) TRZAWO: 4.3
[7]; 0.500 kg/ha
  Herbicide rating (0-9) TRZAWO: 4.5
[8]; 0.125 kg/ha
  Herbicide rating (0-9) CASOB: 4.0
[8]; 0.250 kg/ha
  Herbicide rating (0-9) CASOB: 3.0
[8]; 0.500 kg/ha
  Herbicide rating (0-9) CASOB: 8.0
[9]; 0.125 kg/ha
  Herbicide rating (0-9) GLXMAW: 4.3
[9]; 0.250 kg/ha
  Herbicide rating (0-9) GLXMAW: 5.5
[9]; 0.500 kg/ha
  Herbicide rating (0-9) GLXMAW: 5.5
[10]; 0.125 kg/ha
  Herbicide rating (0-9) GALAP: 7.0
[10]; 0.250 kg/ha
  Herbicide rating (0-9) GALAP: 9.0
[10]; 0.500 kg/ha
  Herbicide rating (0-9) GALAP: 6.0
[11]; 0.125 kg/ha
  Herbicide rating (0-9) SETVI: 0.0
[11]; 0.250 kg/ha
  Herbicide rating (0-9) SETVI: 0.0
[11]; 0.500 kg/ha
  Herbicide rating (0-9) SETVI: 0.5
[12]; 0.125 kg/ha
  Herbicide rating (0-9) ECHCG: 0.0
[12]; 0.250 kg/ha
  Herbicide rating (0-9) ECHCG: 0.0
[12]; 0.500 kg/ha
  Herbicide rating (0-9) ECHCG: 0.5
[13]; 0.125 kg/ha
  Herbicide rating (0-9) AMBEL: 5.0
[13]; 0.250 kg/ha
  Herbicide rating (0-9) AMBEL: 5.0
[13]; 0.500 kg/ha
  Herbicide rating (0-9) AMBEL: 7.0
[14]; 0.125 kg/ha
  Herbicide rating (0-9) GALAP: 7.0
[14]; 0.250 kg/ha
  Herbicide rating (0-9) GALAP: 9.0
[14]; 0.500 kg/ha
  Herbicide rating (0-9) GALAP: 8.5
[15]; 0.125 kg/ha
  Herbicide rating (0-9) ZEAMX: 3.3
[15]; 0.250 kg/ha
  Herbicide rating (0-9) ZEAMX: 4.0
[15]; 0.500 kg/ha
  Herbicide rating (0-9) ZEAMX: 4.3
[16]; 0.125 kg/ha
  Herbicide rating (0-9) IPOSS: 7.5
[16]; 0.250 kg/ha
  Herbicide rating (0-9) IPOSS: 8.0
[16]; 0.500 kg/ha
  Herbicide rating (0-9) IPOSS: 7.0
[17]; 0.125 kg/ha
  Herbicide rating (0-9) AMBEL: 6.0
[17]; 0.250 kg/ha
  Herbicide rating (0-9) AMBEL: 7.5
[17]; 0.500 kg/ha
  Herbicide rating (0-9) AMBEL: 8.5
